The name of at least one read-out is uncertain.
System: H37Rv
Test: In vivo testing: mice infected intravenously with H37Rv, lung tissue CFU counts
Set-up: species or system Male BALB/c mice
Conditions: 20 mg/kg; for Fold X CLF: fold relative to CLF; for Fold X CLF (log): log CFU reduction relative to CLF
Description: Male BALB/c mice (18˜20 g) were infected intravenously with 0.2 ml portions containing 1×10^5 CFU of H37Rv. One day after the infection, four mice were sacrificed and the numbers of CFU in the spleens and lungs were determined. Organs were removed and homogenized in Middlebrook 7H9 broth. To enumerate CFU, appropriate dilutions of the homogenates were plated onto Middlebrook 7H10 agar and colonies were counted after 3 to 4 weeks of incubation at 37° C. The remaining mice were allocated either to untreated groups or to various drug treated groups (six mice per group). The dose of every test compound was 20 mg/kg. The positive control groups were treated by isoniazid and clofazimine. The test compounds and clofazimine were administered by gavage 5 times weekly. Untreated mice were administered by gavage with CMC. Thirty days postinfection, both untreated and treated mice were sacrificed and lung tissue CFU counts were determined. The significance of the CFU count and organ weight difference was assessed by a two-tailed Student t test. P≦0.01 was considered significant.

| Compound | Fold X CLF | Fold X CLF (log) |
| --- | --- | --- |
| FC(F)(F)Oc1ccc(-n2c3c/c(=N\C4CCOCC4)c(Nc4cccnc4)cc-3nc3ccccc32)cc1 [TBI-161, 5-(4-Trifluoromethoxyphenyl)-3-(4-tetrahydropyranyl)imino-2-(3-pyridyl)amino-3,5-dihydrophenazine] | 0.9 | −0.06 |
| COc1ncccc1Nc1cc2nc3ccccc3n(-c3ccc(OC(F)(F)F)cc3)c-2c/c1=N\C1CCC(OC)CC1 (stereo not drawn) [TBI-166, 5-(4-Trifluoromethoxyphenyl)-(4-methoxycyclohexyl)imino-2-(2-methoxy-3-pyridyl)amino-3,5-dihydrophenazine] | 46.8 | 1.67 |
| CC(C)/N=c1\cc2n(-c3ccc(Cl)cc3)c3ccccc3nc-2cc1Nc1cccnc1 [TBI-416, 5-(4-chlorophenyl)-3-(1-methylethyl)imino-2-(3-pyridyl)amino-3,5-dihydrophenazine] | 316.2 | 2.50 |
| COc1ncccc1Nc1cc2nc3ccccc3n(-c3ccc(Cl)cc3)c-2c/c1=N\C1CCOCC1 [TBI-443, 5-(4-chlorophenyl)-3-(4-tetrahydropyranyl)imino-2-(2-methoxy-3-pyridyl)amino-3,5-dihydrophenazine] | 15.8 | 1.20 |
| COc1ncccc1Nc1cc2nc3ccccc3n(-c3ccc(Cl)cc3)c-2c/c1=N\C1CCC(OC)CC1 (stereo not drawn) [TBI-444, 5-(4-Chlorophenyl)-3-(4-methoxycyclohexyl)imino-2-(2-methoxy-3-pyridyl)amino-3,5-dihydrophenazine] | 41.7 | 1.62 |
| Cc1ccc(Nc2cc3nc4ccccc4n(-c4ccc(Cl)cc4)c-3c/c2=N\C2CCOCC2)cn1 [TBI-449, 5-(4-Chlorophenyl)-3-(4-tetrahydropyranyl)imino-2-(6-methyl-3-pyridyl)amino-3,5-dihydrophenazine] | 288.4 | 2.46 |
| COC1CCC(/N=c2\cc3n(-c4ccc(Cl)cc4)c4ccccc4nc-3cc2Nc2ccc(C)nc2)CC1 (stereo not drawn) [TBI-450, 5-(4-Chlorophenyl)-3-(4-methoxycyclohexyl)imino-2-(6-methyl-3-pyridyl)amino-3,5-dihydrophenazine] | 489.8 | 2.69 |
| CC(C)/N=c1\cc2n(-c3ccc(C(F)(F)F)cc3)c3ccccc3nc-2cc1Nc1cccnc1 [TBI-678, 5-(4-Trifluoromethylphenyl)-3-(1-methylethyl)imino-2-(3-pyridyl)amino-3,5-dihydrophenazine] | 1.5 | 0.17 |
| COC1CCC(/N=c2\cc3n(-c4ccc(C(F)(F)F)cc4)c4ccccc4nc-3cc2Nc2cccnc2)CC1 (stereo not drawn) [TBI-688, 5-(4-Trifluoromethylphenyl)-3-(4-methoxycyclohexyl)imino-2-(3-pyridyl)amino-3,5-dihydrophenazine] | 1.0 | 0.00 |
| COc1ncccc1Nc1cc2nc3ccccc3n(-c3ccc(F)cc3)c-2c/c1=N\C1CCC(OC)CC1 (stereo not drawn) [TBI-1002, 5-(4-Fluorophenyl)-3-(4-methoxycyclohexyl)imino-2-(2-methoxy-3-pyridyl)amino-3,5-dihydrophenazine] | 30.2 | 1.48 |
| COc1ncccc1Nc1cc2nc3ccccc3n(-c3ccc(F)cc3)c-2c/c1=N\C(C)C [TBI-1004, 5-(4-Fluorophenyl)-3-(1-methylethyl)imino-2-(2-methoxy-3-pyridyl)amino-3,5-dihydrophenazine] | 112.2 | 2.05 |
| COc1ncccc1Nc1cc2nc3ccccc3n(-c3ccc(F)cc3)c-2c/c1=N\C1CC1 [TBI-1010, 5-(4-Fluorophenyl)-3-cyclopropylimino-2-(2-methoxy-3-pyridyl)amino-3,5-dihydrophenazine] | 29.5 | 1.47 |

Reference: patent US8716292B2, “Riminophenazines with 2-(heteroaryl)amino substituents and their anti-microbial activity” (priority 2010, dated 2014)
